Results on 90 compounds are retold here after paper PMC4336329 (PLoS ONE, 2015).

About 2,200 (0.71%) of roughly 310,000 compounds showed an effect of 50% or more. Effects have a minus sign here. The list shows a part of the results.

human ether-à-go-go-related gene (hERG) potassium channel, sequence (Q12809 whole entry, looked up): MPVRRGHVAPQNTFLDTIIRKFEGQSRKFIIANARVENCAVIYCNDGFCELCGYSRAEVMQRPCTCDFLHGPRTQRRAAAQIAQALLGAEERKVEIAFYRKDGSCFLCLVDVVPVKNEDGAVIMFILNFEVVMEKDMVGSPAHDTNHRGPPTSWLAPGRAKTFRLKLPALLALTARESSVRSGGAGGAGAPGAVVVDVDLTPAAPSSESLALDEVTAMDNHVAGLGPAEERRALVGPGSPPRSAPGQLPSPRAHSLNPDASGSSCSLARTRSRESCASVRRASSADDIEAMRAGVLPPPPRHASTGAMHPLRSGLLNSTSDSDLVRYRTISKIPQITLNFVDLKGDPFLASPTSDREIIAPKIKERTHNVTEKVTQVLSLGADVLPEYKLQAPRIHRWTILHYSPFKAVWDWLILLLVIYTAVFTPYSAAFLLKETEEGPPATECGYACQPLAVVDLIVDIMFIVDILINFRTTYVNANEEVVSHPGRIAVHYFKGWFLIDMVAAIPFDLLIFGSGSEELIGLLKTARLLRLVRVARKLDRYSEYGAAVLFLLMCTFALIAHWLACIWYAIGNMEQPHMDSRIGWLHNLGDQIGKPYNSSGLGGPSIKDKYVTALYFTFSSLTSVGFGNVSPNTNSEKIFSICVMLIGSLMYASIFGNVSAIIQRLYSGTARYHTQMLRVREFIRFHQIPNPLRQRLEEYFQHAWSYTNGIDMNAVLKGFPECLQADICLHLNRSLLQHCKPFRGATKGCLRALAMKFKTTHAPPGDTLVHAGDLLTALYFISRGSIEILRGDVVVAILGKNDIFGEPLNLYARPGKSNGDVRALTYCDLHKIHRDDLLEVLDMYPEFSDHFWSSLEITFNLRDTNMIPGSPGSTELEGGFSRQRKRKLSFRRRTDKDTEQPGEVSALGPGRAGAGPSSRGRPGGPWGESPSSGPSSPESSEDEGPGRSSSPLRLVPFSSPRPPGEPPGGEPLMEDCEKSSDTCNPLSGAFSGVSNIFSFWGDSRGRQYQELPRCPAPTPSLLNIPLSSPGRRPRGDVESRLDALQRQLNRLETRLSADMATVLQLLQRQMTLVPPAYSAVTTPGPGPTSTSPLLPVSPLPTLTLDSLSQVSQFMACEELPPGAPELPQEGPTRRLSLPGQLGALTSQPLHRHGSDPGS

This experiment addresses human ether-à-go-go-related gene (hERG) potassium channel (human, UniProt Q12809). Put plainly: primary screen, population patch clamp on CHO cells stably expressing hERG.
In the case of `Cc1cc(C(=O)N/N=C\c2cc(C(C)(C)C)c(O)c(C(C)(C)C)c2)n[nH]1`, the “hERG current change (%, negative = inhibition) at 1uM” value worked out at 12.2%. The result for `Cc1c(NS(=O)(=O)c2ccc(Cl)c(C(=O)OCC(=O)NCc3ccco3)c2)c(=O)n(-c2ccccc2)n1C` reads 1.27%; that for `CCS(=O)(=O)N1Cc2ccccc2CC1C(=O)Nc1nc2ccccc2[nH]1` (stereo not drawn), 5.11%.

`C/C(CC(=O)Nc1ccc(C)c(Cl)c1)=N\NC(=O)c1ccco1`: the “hERG current change (%, negative = inhibition) at 1uM” value is listed as 0.72%. The figure for `COc1ccc(CCNC(=O)CN2C(=O)NC(Cc3c[nH]c4ccccc34)C2=O)cc1` (stereo not drawn) is 9.58%; for `Cc1ccc(-c2cc(C(F)F)n3ncc(C(=O)N4CCC5(CC4)OCCO5)c3n2)cc1` it is 10.9%. The figure for `Br.N=c1n(CC(=O)c2ccc([N+](=O)[O-])cc2)c2ccccc2n1Cc1ccccc1` is -8.69%; for `COc1ccc(C(=O)Nc2ccc(OC)c(OC)c2)cc1` it is 6.59%; for `COc1ccc(S(=O)(=O)N(C)CC(=O)NCCN2CCOCC2)cc1C` it is 19.1%. `CCCCCCC(=O)N(O)C1CC(=O)N(c2ccc(Cl)cc2)C1=O` (stereo not drawn): the “hERG current change (%, negative = inhibition) at 1uM” value was 11.5%. The figure for `Cc1c(N)cc[n+](CC(=O)c2ccccc2)c1C.[Br-]` is 15.9%. Consider `CCc1nnc(NC(=O)COc2ccc([N+](=O)[O-])cc2)s1`, for which the “hERG current change (%, negative = inhibition) at 1uM” value is recorded as 11.4%. The figure for `O=C(NC1CCCCC1)c1ccc2c(c1)S(=O)(=O)c1ccccc1C2=O` is 9.15%; for `CCCn1c(SCC(=O)NCc2ccco2)nc2c1c(=O)n(C)c(=O)n2C` it is -4.34%; for `CCOc1ccc(OCCOC(=O)CNC(=O)c2ccc(Cl)cc2Cl)cc1` it is 12.5%. The figure for `COc1ccc(N(C)S(=O)(=O)c2cccc(C(=O)Nc3nnc(C4CC4)s3)c2)cc1` is 8.59%; for `O=C(CN1C(=O)CC(c2ccccc2)Sc2ccccc21)NCC1CCCO1` (stereo not drawn) it is 8.03%; for `CCN(CC)CCN1C(=O)C(O)=C(C(=O)c2ccco2)C1c1ccccn1` (stereo not drawn) it is 7.68%.

For `O=C(Oc1ccc(-c2nnco2)cc1)N(c1ccccc1)c1ccccc1`, the “hERG current change (%, negative = inhibition) at 1uM” value is listed as -6.62%. The result for `CCN(CCN1CCCC1)C(=O)c1cc(COc2ccccc2SC)on1` reads 0.395%; that for `COc1cccc(C(=O)N2CCN(Cc3ccccc3Br)CC2)c1.O=C(O)C(=O)O`, 21.9%. Regarding `Cc1cc(/C=N/NS(=O)(=O)c2ccc(F)c(Cl)c2)no1`, the “hERG current change (%, negative = inhibition) at 1uM” value is 8.09%. The result for `CCn1cc(CN2CCc3c([nH]c4ccccc34)C2c2cccc(OC)c2)c(C)n1` (stereo not drawn) reads -3.81%; that for `Cc1ccc(CNC(=O)CCOc2ccc(C(C)(C)C)cc2)cc1`, 8.7%. Regarding `COc1ccc(CNC(=O)COc2ccc(C)nc2[N+](=O)[O-])cc1`, the “hERG current change (%, negative = inhibition) at 1uM” value was 2.18%. As to `COc1ccc(-c2csc(Nc3cc(C)ccn3)n2)cc1C`, the “hERG current change (%, negative = inhibition) at 1uM” value is 14.2%.

`S=c1[nH]c2ccc(Cl)cc2s1`: the “hERG current change (%, negative = inhibition) at 1uM” value worked out at 8.54%. The result for `Cc1cc(OCCCCCNCCO)ccc1Cl` reads -3.29%; that for `Fc1ccccc1/C=N/Nc1ccc(Cl)nn1`, 10.3%; that for `Cc1ccc(NC(=O)C2C3C=CC4(CN(Cc5cccnc5)C(=O)C24)O3)cc1` (stereo not drawn), 9.05%. The figure for `N/C(Cc1ccccc1)=N\OC(=O)c1cccc2ccccc12` is 41.7%; for `O=C(CSc1nc2ccccc2nc1N1CCCCC1)Nc1ccc(F)cc1` it is 2.12%.

On to `O=C(NC1CC1)C(Cc1ccccc1)NS(=O)(=O)c1ccccc1F` (stereo not drawn), for which the “hERG current change (%, negative = inhibition) at 1uM” value amounted to 15.3%. The result for `COC(=O)c1ccc(NC(=S)N2CCN(CCO)CC2)cc1` reads 9.6%; that for `Cn1c2ccc(F)cc2c2ncn(Cc3ccccn3)c(=O)c21`, -2%.

Turning to `O=C(CN1C(=O)c2ccccc2S1(=O)=O)NC(Nc1ccccc1F)C(Cl)(Cl)Cl` (stereo not drawn), the “hERG current change (%, negative = inhibition) at 1uM” value amounted to 6.55%. The result for `CN(C)CC1CCCCC1OC(=O)Cc1ccc(Cl)c([N+](=O)[O-])c1` (stereo not drawn) reads 10.3%; that for `CC12CCC(C/C1=N\OC(=O)c1c(F)cccc1F)C2(C)C` (stereo not drawn), 9.64%; that for `COC(=O)c1[nH]c(=O)c2ccccc2c1O`, 15.4%.

On to `CNC(=S)Nc1ccc(OCc2ccccc2)cc1`, for which the “hERG current change (%, negative = inhibition) at 1uM” value is 7.17%. The figure for `C#CCN(C(=O)Nc1ccccc1)c1ccccc1` is 6.39%; for `COc1ccc(C(C)(C)C)cc1NC(=O)CCNC(=O)c1ccco1` it is 6.6%; for `c1nc2n(n1)C1=C(CCCC1)C1(CCCCC1)N2` it is 9.53%. Regarding `COc1cccc2c1OCC/C2=N\NC(=O)COc1ccccc1C`, the “hERG current change (%, negative = inhibition) at 1uM” value is -13.9%. The figure for `CCOC(=O)c1c(C)c2c(=O)[nH]cnc2n1-c1ccccc1` is 9.66%. The result for `Cc1ccccc1-n1c(C)nc2ccccc21` reads -4.05%; that for `Cc1c(C(=O)O)oc2c(F)cccc12`, 19.5%. The figure for `Cc1ccc(NCCC(=O)c2cccs2)cc1C` is 5.33%; for `C/C(CCC(C)C)=N\NS(=O)(=O)c1ccc(C)c([N+](=O)[O-])c1` it is -1.92%. With `Cc1cc(Br)c(NC(=O)COC(=O)C2CC2C)c(Br)c1` (stereo not drawn), the “hERG current change (%, negative = inhibition) at 1uM” value is 8.62%.

For the compound `O=C(NCc1ccco1)C(c1ccco1)N(C(=O)Cn1nnc2ccccc21)c1ccc2c(c1)CCC2` (stereo not drawn), the “hERG current change (%, negative = inhibition) at 1uM” value was 4.84%.

Consider `CC1=CCC2C(=O)N(c3cccc(C(=O)Nc4ccccc4Cl)c3)C(=O)C2C1` (stereo not drawn), for which the “hERG current change (%, negative = inhibition) at 1uM” value was determined as 6.69%. The figure for `CC(=O)N1CCN(C(=S)NCc2ccccc2)CC1` is 12.7%; for `CCOc1ccccc1NC(=O)C(OC(=O)c1ccc(CC)cc1)c1ccccc1` (stereo not drawn) it is 4.75%. Regarding `CCN(CC)CCC(C)OC(=O)c1ccc(O)cc1O.Cl` (stereo not drawn), the “hERG current change (%, negative = inhibition) at 1uM” value is listed as -0.912%. The figure for `O=C(NCC1(N2CCCCC2)CCCCC1)c1ccc(NS(=O)(=O)c2ccccc2)cc1` is 5.37%; for `CCOC(=O)CNC(=O)COc1coc(CN2CCN(c3ccc(F)cc3)CC2)cc1=O` it is 11.9%; for `Cc1nc2sccn2c(=O)c1S(=O)(=O)NCc1ccccc1` it is 9.92%. Turning to `O=C(NCCCN1CCCC1)Nc1ccc(F)cc1`, the “hERG current change (%, negative = inhibition) at 1uM” value is reported as 6.95%. The figure for `O=C(Cn1nnc2ccccc2c1=O)NCc1ccc(Cl)cc1` is 10.3%. The result for `Oc1ccccc1-c1cc(C(F)(F)C(F)F)nc(-c2ccccc2)n1` reads 7.21%; that for `CCOC(=O)c1[nH]c2ccc(Br)cc2c1NC(=O)CCN1CCC(C)CC1`, -36.9%; that for `CC(C)[C@@H](C(=O)NC1CCCC1)N1C(=O)N2CCc3c([nH]c4ccccc34)[C@@]2(C)C1=O`, 10.3%.

Regarding `Cc1ccc(NC(=S)N2CCN(C(=O)C3CCCO3)CC2)cc1` (stereo not drawn), the “hERG current change (%, negative = inhibition) at 1uM” value is 10.2%. As to `Cn1cc(CN2CCC(C(=O)N3CCCCC3)CC2)c(-c2ccccc2F)n1`, the “hERG current change (%, negative = inhibition) at 1uM” value amounted to 5.6%. The result for `COc1ccc2c(c1)c(=O)oc1cc3occ(C(C)(C)C)c3cc12` reads 0.3%. The figure for `CC(C(=O)Nc1ccccn1)c1ccccc1` (stereo not drawn) is 12.8%. For the compound `CCN1CCCC1CNC(=O)CS(=O)(=O)Cc1nc(-c2ccccc2C)oc1C` (stereo not drawn), the “hERG current change (%, negative = inhibition) at 1uM” value is reported as 5.36%.

Consider `Cc1ccccc1NC(=O)COC(=O)CNC(=O)c1sc2ccccc2c1Cl`, for which the “hERG current change (%, negative = inhibition) at 1uM” value is 11.6%. The figure for `O=C(Oc1cccnc1)c1ccccc1[N+](=O)[O-]` is 7.51%; for `CC(=O)OCc1c(COC(C)=O)[n+](=O)c2ccccc2n1[O-]` it is -4.58%; for `COC(=O)/C=C/S(=O)(=O)c1ccc(NC(C)=O)cc1` it is 5.47%. The figure for `CCOc1cc(S(=O)(=O)n2cnc(C)c2)ccc1Cl` is 7.15%; for `c1ccc(CN=C2Nc3ccccc3CS2)nc1` it is 12.2%; for `CC(=O)c1c(-c2ccccc2)c2ccccc2[nH]c1=O` it is 13.5%. The result for `CC(OC(=O)Cc1c[nH]c2ccccc12)C(=O)Nc1ccccc1F` (stereo not drawn) reads 3.81%; that for `COc1ccc(CC(=O)OCC(=O)Nc2cc(S(=O)(=O)N3CCOCC3)ccc2N2CCCC2)cc1`, -3.25%; that for `COc1cc(O)oc1C=Nc1ccc(Oc2ccccc2)cc1`, 14.4%. Take `CCc1cccc2c(C(=O)CSc3nnc(-c4ccncc4)n3C)c[nH]c12`: the “hERG current change (%, negative = inhibition) at 1uM” value was 5.13%.

In the case of `Cn1c(N)c(C(=O)COC(=O)c2ccccn2)c(=O)n(C)c1=O`, the “hERG current change (%, negative = inhibition) at 1uM” value worked out at 0.675%.

Turning to `COc1ccc(CCN(C)C(=O)c2ccc(COc3ccccc3)o2)cc1OC`, the “hERG current change (%, negative = inhibition) at 1uM” value stood at 9.02%. The figure for `O=C(NCc1cccc(Br)c1)C1CC(c2ccccc2C(F)(F)F)=NO1` (stereo not drawn) is 0.641%; for `CSc1ccccc1NC(=O)N1CCCC(C(=O)c2ccc3c(c2)OCO3)C1` (stereo not drawn) it is 3.41%.

`O=C1CCC(c2ccccc2)=NN1Cc1c(F)cccc1Cl`: the “hERG current change (%, negative = inhibition) at 1uM” value is listed as 9.84%. As to `CC(C)C(=O)N1CCN(c2ccc(NC(=O)c3ccc([N+](=O)[O-])o3)cc2)CC1`, the “hERG current change (%, negative = inhibition) at 1uM” value was found to be 0.15%. For the compound `Cc1cccc(NC(=O)C(=O)N/N=C/c2ccncc2)c1`, the “hERG current change (%, negative = inhibition) at 1uM” value came to 8.76%. The figure for `COc1ccc(C)cc1-n1c(SCC(=O)Nc2cc(C)on2)nc2sc(C)c(C)c2c1=O` is -1.95%; for `S=c1[nH]nc(COc2ccc3c(c2)OCO3)n1-c1ccccc1` it is 12.5%. Regarding `Cc1ccc(CCN2CC(C(=O)NCCN3CCCCCC3)CC2=O)cc1` (stereo not drawn), the “hERG current change (%, negative = inhibition) at 1uM” value is on record as 9.52%. The result for `COc1ccc(C(=O)N/N=C/c2c(CO)cnc(C)c2O)cc1` reads 9.25%.
